In the supplement of paper PMC9513381:

What was measured:
[1] = target: SARS-CoV-2 Wuhan-Hu-1 spike pseudovirus; assay: pseudovirus neutralization IC50; higher = weaker neutralization
Protocol: (§1)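 Single-round luciferase reporter pseudovirus mixed with antibody dilutions and put on 293T-ACE2 cells for 48 h; signal relative to no-antibody wells, four-parameter fit.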

[2] = target: SARS-CoV-2 Wuhan-Hu-1 spike pseudovirus; assay: pseudovirus neutralization IC90; higher = weaker neutralization
Protocol: as §1

[3] = target: SARS-CoV-2 Delta (B.1.617.2) spike RBD; assay: ELISA binding EC50; higher = weaker binding; ELISA of recombinant human antibody on coated antigen, from 10 µg/ml in fourfold dilutions; four-parameter fit.
[4] = target: SARS-CoV-2 Omicron BA.1 spike protein; assay: as above
[5] = target: SARS-CoV-2 Wuhan-Hu-1 spike receptor-binding domain; assay: as above

B1: B1095 (protein)
chain 1: QVQLVQSGAEVRKPGSSVKVACKASGGNFNNSGISWVRQAPGQGLEWMGGIIPLFESEKYAQKFQGRVTITADESTSTAYMELSSLRSEDTAVYYCARGRVATRRTTVTTLFDDWGQGTLVTVSS
chain 2: DIVMTQSPDSLAVSLGERATINCKSSQSVLYSSNNKNYLAWYQQKPGQPPKLLFYWASTRESGVPDRFSGSGSGADFTLTISSLQAEDVAVYYCLQYYSSPYTFGQGTKLEIK
pseudovirus neutralization IC50 [1]: 0.00236 µg/mL | pseudovirus neutralization IC90 [2]: 0.0232 µg/mL | ELISA binding EC50 [3]: 0.0662 µg/mL | ELISA binding EC50 [4]: > 1 µg/mL | ELISA binding EC50 [5]: 0.00181 µg/mL

B2: B1096 (protein)
chain 1: EVQLVESGGGLVQPGGSLRLSCAASGFTFYTYDMHWVRQTPGKGLEWVSGIGTAGDTYYSGSVKGRFTVSRVDAKNSLYLQMDSLRAGDTAVYYCARGLCDFWSDYVSCYFDYWGQGTLVTVSS
chain 2: QSVLTQPPSVSAAPGQKVTISCSGSSSNIGNNYVSWFQQLPGTAPKLLIYDNNKRPSGIPDRFSGSKSGTSATLGITGLQTGDEADYYCGTWDSSVNAGVVFGGGTKLTVL
pseudovirus neutralization IC50 [1]: 0.00454 µg/mL | pseudovirus neutralization IC90 [2]: 0.062 µg/mL | ELISA binding EC50 [3]: 0.00624 µg/mL | ELISA binding EC50 [4]: > 1 µg/mL | ELISA binding EC50 [5]: 0.00187 µg/mL

B3: B1097 (protein)
chain 1: QLQLQESGPGLVKPSETLSLSCTVSGVSISSRNFYWGWIRQPPGKGLEWIGSIYYSGSTFSNPSLKTRVTISVDTSKKQFSLKLSSVTAADTAVYYCARALRHFDWSRPNDYHDAFDIWGQGTMVTVSS
chain 2: EIVLTQSPATLSLSPGERATLSCRASQSVGNYLAWYQQKPGQTPRLLISDASDRATGIPARFSGSGSGTDFTLTISSLEPEDFAVYYCQQCSNWPLTFGGGTKVEIK
pseudovirus neutralization IC50 [1]: 0.0108 µg/mL | pseudovirus neutralization IC90 [2]: 0.184 µg/mL | ELISA binding EC50 [3]: 0.0145 µg/mL | ELISA binding EC50 [4]: 0.0265 µg/mL | ELISA binding EC50 [5]: 0.00281 µg/mL

B4: B1098 (protein)
chain 1: QLQLQESGPGLVKPSETLSLSCTVSGVSISSRNFYWGWIRQPPGKGLEWIGSIYYSGSTFSNPSLKTRVTISVDTSKKQFSLKLSSVTAADTAVYYCARALRHFDWSRPNDYHDAFDIWGQGTMVTVSS
chain 2: QSVLTQPPSVSGAPGQRVTISCTGSSSNIGANYDVHWYQHLPGTAPKLLIYGNNNRPSGVPDRFSGSKSGTSASLAITGLRAEDEADYYCQSYDSSLSGIVFGSGTKVTVL
pseudovirus neutralization IC50 [1]: > 1 µg/mL | pseudovirus neutralization IC90 [2]: > 1 µg/mL | ELISA binding EC50 [3]: > 1 µg/mL | ELISA binding EC50 [4]: > 1 µg/mL | ELISA binding EC50 [5]: 0.00878 µg/mL

B5: B1100 (protein)
chain 1: EVQLVESGGGLVQPGRSLRLSCAASGFTFDDYAMHWVRQAPGKALEWVSGITWNSGTIGYADSVKGRFTISRDNAKNSLYLQMIRLRPEDTALYYCAKDITYGDKHPENYGMDVWGQGTTVTVSS
chain 2: SYVLTQPPSVSVAPGQTARMTCGGNNIGSKSVHWYQQKPGQAPVLVVYDDSDRPSGIPERFSGSNSGNTATLTISRVEAGDEADYYCQVWDSSSDLNVFGSGTKVTVL
pseudovirus neutralization IC50 [1]: 0.00968 µg/mL | pseudovirus neutralization IC90 [2]: 0.151 µg/mL | ELISA binding EC50 [3]: 0.0144 µg/mL | ELISA binding EC50 [4]: 0.00347 µg/mL | ELISA binding EC50 [5]: 0.00192 µg/mL

B6: B1101 (protein)
chain 1: QVQLVQSGAEMKKPGSSVKVSCKASGGTFSSYSISWVRQAPGQGLEWMGEIMPILGIPNYAQKFQGRVTLTADQSTSTAYMDLTSLRSEDTAVYYCARVRGYSSSSSSWYFDLWGRGTLVSVSA
chain 2: QSVLTQPPSVSGAPGQRVTISCTGSNSNIGAAYDVHWYQQLPGTAPKLLMYGNNNRPSGVPDRFSGSKSDTSASLAITGLQAEDEADYYCQSYDSSLSGSVFGGGTKLTVL
pseudovirus neutralization IC50 [1]: 0.0828 µg/mL | pseudovirus neutralization IC90 [2]: 0.811 µg/mL | ELISA binding EC50 [3]: 0.0223 µg/mL | ELISA binding EC50 [4]: 0.00393 µg/mL | ELISA binding EC50 [5]: 0.00273 µg/mL

B7: B1103 (protein)
chain 1: QVQLVQSGAEVKKPGASVKVSCKASGYTFISHYMHWVRQAPGQGLEWMGIINPDGGSTTYAQKFQGRVTMTGDSSTSTLYMELSSLRSEDTAVYYCARDGGFIPAAEVFDIWGQGTVVTVSS
chain 2: DIQMTQSPSSLSASVGDRVTITCRASQGISNYLAWYQQKPGKVPKLLIYAASTLQSGVPSRFSGSGSGTDFTLTISSLQPEDVATYYCQKYNSAPLTFGGGTKVEIK
pseudovirus neutralization IC50 [1]: > 1 µg/mL | pseudovirus neutralization IC90 [2]: > 1 µg/mL | ELISA binding EC50 [3]: 0.757 µg/mL | ELISA binding EC50 [4]: 1.11 µg/mL | ELISA binding EC50 [5]: 0.00617 µg/mL

Recombinant human monoclonal antibodies (heavy:light variable regions). ELISA EC50 on the named antigen, from 10 µg/ml down; IC50 / IC90 against spike pseudovirus on 293T-ACE2 cells, 48 h; lower = stronger. Calls: IC50 above 1,000 ng/ml = non-neutralizing; EC50 above 1,000 ng/ml = non-binder. The source prints 1000 for neutralization that was not reached; it is given as >1000 ng/ml. Only binders of the Wuhan-Hu-1 domain have neutralization values.
